For 33 molecules, GI50 and TGI results are on record in PubChem BioAssay (NCI).

Structures are written as SMILES.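 Protocol summary: plate cells (96-well), add compound at 5 concentrations, incubate 48 h, interpolate endpoints linearly. At the GI50, growth is halved. TGI is the concentration that stops growth completely.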 Where only a bound is given, the exact number is not on record here.

The test system of this experiment is NCI-H322M lung. As to the kind of experiment: inhibition of tumour cell growth, NCI panel, 48 h.
Regarding `CN1CCN(Cc2ccc(NC(=O)c3ccc(C#Cc4c(N)ncc5ccc(F)cc45)cc3)cc2C(F)(F)F)CC1`, the GI50 was 0.867 µM and the TGI worked out at 1.72 µM. In the case of `NC(=O)c1ccc2c(c1)S(=O)(=O)c1ccccc1C2=O`, the TGI is greater than 100 µM. In the case of `C#Cc1c(C(N)=O)ncn1C1OC(COP(=O)(OCc2ccc([N+](=O)[O-])o2)N(C)CCCCCl)C(O)C1O` (stereo unspecified), the GI50 is 28.9 µM and the TGI was greater than 100 µM. Consider `O=[N+]([O-])c1ccc(N=Nc2c(O)c(S(=O)(=O)O)cc3cc(S(=O)(=O)O)ccc23)cc1`, for which the TGI is greater than 100 µM. Same read-out and setting: the figure for `COC(=O)n1c(=O)n(-c2ccccc2)c(=O)n1C(=O)OC` is greater than 100 µM. On the same count and under the same terms, the figure for `C=C(CC[C@@H](C(=O)O)[C@H]1[C@H](O)C[C@@]2(C)C3=CC[C@@H](C(=C)C)[C@](C)(CCC(=O)O)C3=CC[C@]12C)C(C)C` is 32.5 µM.

`O=c1c2cc(I)ccc2nc(Sc2ncccc2[N+](=O)[O-])n1Cc1ccccc1` gave a TGI greater than 100 µM. Still for that read-out and setting: the figure for `Oc1[nH]c2ccccc2c1N=Nc1nc(-c2ccc(Cl)c(Cl)c2)cs1` is greater than 100 µM. As for `O=C(OCC1CO1)c1cccs1` (stereo unspecified), the TGI is greater than 100 µM.

In the case of `COc1ccc(-n2c3c(c4c(CN5CCOCC5)c(O)ccc42)CCc2ccccc2C3=O)cc1`, the GI50 is greater than 100 µM and the TGI was greater than 100 µM. Turning to `[N-]=[N+]=NCc1cccc(Nc2cc(=O)[nH]c(=O)[nH]2)c1`, the TGI was greater than 100 µM. The same measure, in the same setting: with `c1ccc2c(c1)[nH]c1cnc3c4cccnc4[nH]c3c12` the figure was 30.7 µM. Still for that read-out and setting: the figure for `Cc1cc(NS(=O)(=O)c2ccc(NC(=O)c3cccc4c(Nc5ccc(S(=O)(=O)N=C(N)N)cc5)c5ccccc5nc34)cc2)no1` is greater than 100 µM. With `COc1ccc2c(c1)C(c1ccccc1Cl)=Nc1c(n[nH]c1C)N2`, the GI50 was greater than 25 µM and the TGI was greater than 25 µM. The molecule `CC(C)(C)C1(COC(=O)c2ccc(N)cc2)COC1` returned a TGI greater than 100 µM. On the same count and under the same terms, the figure for `Cc1sc(/N=C/c2c[nH]c3ccccc23)c(C#N)c1C` is greater than 100 µM; for `O=C1/C(=C/c2ccccc2[N+](=O)[O-])N=C(c2ccccc2)N1C1Nc2cc3c(cc2S1)NC(N1C(=O)/C(=C/c2ccccc2[N+](=O)[O-])N=C1c1ccccc1)S3` (stereo unspecified) it is greater than 100 µM. Same read-out and setting: the figure for `COc1ccccc1NC(=O)C1=C(C)NC(C)=C(C(=O)Nc2ccccc2OC)C1c1ccc(C)cc1` is greater than 100 µM; for `CN1CC(C(=O)C2C(=O)c3ccccc3C2=O)C(=O)C(=O)C(C(=O)C2C(=O)c3ccccc3C2=O)C1` (stereo unspecified) it is greater than 100 µM; for `CC#CC1/C(=C\C(=O)OC)CCCC1O` (stereo unspecified) it is greater than 100 µM. For the molecule `O=[Se](=O)c1ccccc1.O=[Se](=O)c1ccccc1.[Cu]`, the GI50 is 15.6 µM and the TGI is 29.4 µM. `O=C(O)c1cc2cc(OCc3ccccc3)c(OCc3ccccc3)cc2[nH]1`: the GI50 is 23 µM and the TGI came out at 57.1 µM. In the same order, the values of `O=C(O)c1ccc(N/C=C2\C(=O)c3ccccc3OC2O)cc1O` (stereo unspecified) are 59.9 µg/mL and greater than 150 µg/mL. For the molecule `COc1cc2c(cc1O)CC13CCC(=O)N1CCc1cc(OC)c(O)c-2c13` (stereo unspecified), the TGI was greater than 6.81 µM. With `CCOC(=O)C(=Cc1ccc(C(=O)OC)cc1)C(=O)OCC`, the TGI is 21 µM.

For `O=C1Nc2cc([N+](=O)[O-])ccc2NC1/C(=N\Nc1ccccc1)C(O)c1cccc([N+](=O)[O-])c1` (stereo unspecified), the TGI was greater than 100 µM. The same measure, in the same setting: with `O=C1NC2(CCCCC2)C2CCCCCC12` (stereo unspecified) the figure was greater than 100 µM.

For the molecule `COc1cccc(/C=N/[N-]C(N)=O)c1[O-].[Ni+2].[OH3+].c1cnc2c(c1)ccc1cccnc12`, the TGI was greater than 100 µM. On the same count and under the same terms, the figure for `COc1cccc(N(CN2CC=CC2=O)C(C)=O)c1` is greater than 100 µM.

Take `Cc1cccc(NC(=O)C(=O)C(C(=O)c2ccccc2F)C2OC(=O)c3ccccc32)c1Cl` (stereo unspecified): the TGI came out at 79.3 µM. Take `CCN(CCCl)CCCNc1c2ccccc2nc2ccc(OC)cc12`: the GI50 is 320 µM.

`C=CCNC(=O)NC1=CSC2=NC(=O)C3(NN12)c1ccccc1-c1ccccc13` returned a TGI greater than 10 µM. Turning to `O=c1[nH]cnc2[nH]ncc12`, the GI50 was 316 µM and the TGI was greater than 5000 µM.
